Data from PubChem BioAssay AID1963576 (National Center for Advancing Translational Sciences (NCATS), 2024).
Among all 46,000 compounds or so, about 60 (0.1%) were called active. Another 3% or so got no clear call; they are omitted. The call rests on the fitted dose curve; in most records, active means well fitted inhibition curve with a large enough effect; inconclusive means small, poorly fitted or top-dose-only effect; inactive means no such curve, though single readings can be large or run the other way. This is one part of the list.

Assay: Primary qHTS assay for Inhibitors of ovarian cancer metastasis using an organotypic tumor microenvironment (TME) model. Further: nearly all actives have a fitted effect of over 65% in size.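 On activity change, negative = inhibition: plate controls were DMSO wells for no effect and tomatine positive control wells for full effect.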
Conditions: SKOV3ip1-GFP adhesion/invasion on 3D omental model, fluorescence; series mostly up to 45.8 µM; activity change, negative = inhibition: at the top concentration
In short: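 Primary human omental fibroblast/mesothelial 3D culture pre-formed 48 h. SKOV3ip1-GFP cells added with compounds (0.36-46 umol/L), incubated 2 h RT/16 h 37 C, fixed; GFP cells quantified at 488/509 nm.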

Activity change, negative = inhibition, inactive:
O=C(c1cccs1)c1cn(CCOc2ccccc2Cl)c2ccccc12 -1.91%
Cc1ccc(NC(=O)C(=O)NCC(c2ccc3c(c2)OCO3)N2CCN(c3ccccc3)CC2)cc1 (stereo not drawn) 6.52%
COc1ccc(C2C(=O)N(C3CCCCCC3)CC(=O)N2CCc2ccc(OC)c(OC)c2)cc1 (stereo not drawn) -6.79%
COc1ccc(CCNC(=O)c2ccc(Cn3c(=O)c4ccccc4n(Cc4ccc(C)cc4)c3=O)cc2)cc1OC -7.81%
COCCCn1c(SCC(=O)Nc2ccccc2OC)nc2c(sc3ccccc32)c1=O 11.4%
COc1ccc(NC(=O)CSc2nc(-c3ccc(F)cc3)c3cccc(C)c3n2)cc1 -4.4%
CC1(C)C(=O)N(CCN2CCC(C(=O)c3ccc(F)cc3)CC2)c2ccccc21 0.397%
CCOc1ccc(CCNC(=O)c2ccc(-c3nc(COc4ccc(C)cc4)c(C)o3)cc2)cc1 -8.28%
Cc1ccc(C)c(NC(=O)CCc2c(C)nn(-c3ccc(N4CCCC4)nn3)c2C)c1 7.68%
COc1ccc(-c2oc3ncn4nc(COc5ccccc5C)nc4c3c2-c2ccc(OC)cc2)cc1 1.21%
COC(=O)c1ccc(OC)c(Cn2c(=O)n(-c3cccc(Cl)c3)c(=O)c3c4c(sc32)CN(C(C)=O)CC4)c1 4.95%
CCOC(=O)C1CCCN(C(=O)Cn2ncn3c(cc4sc(CC)cc43)c2=O)C1 (stereo not drawn) -3.49%
CCC1=Nc2cc(C(=O)NCc3ccc(C)cc3)ccc2Sc2ccc(C)cc21 -23.2%
CCCCN(C)CCCNC(=O)c1cc(-c2cccnc2)nc2ccccc12 -13%
O=C(CN1C(=O)COc2ccc(S(=O)(=O)N3CCCCCC3)cc21)N1CCN(c2cccc(C(F)(F)F)c2)CC1 1.31%
COc1ccc2c(CNCCc3cccs3)c(C(=O)O)n(Cc3ccccc3C)c2c1 -7.1%
COc1ccc2oc(=O)c(-c3cn4c(n3)sc3cc(F)ccc34)cc2c1 -9.77%
Cc1cccc(C)c1OCC(=O)Nc1c(C(=O)c2ccc(Br)cc2)oc2ccccc12 24.8%
CCC(C)NC(=O)c1[nH]c2cc(C)ccc2c1Sc1ccc(Cl)cc1 (stereo not drawn) 4.95%
CCOc1cc2[nH]c(=O)n(CCCCC(=O)N3CCN(c4ccccc4)CC3)c(=O)c2cc1OCC 6.34%
COc1ccc(-c2noc(N3CCC(C(=O)N(C)c4cc(Cl)ccc4OC)CC3)n2)cc1 -6.78%
CCCCOc1ccc(S(=O)(=O)NCc2csc(-c3ccc(OC)cc3)n2)cc1 -5.84%
CCCn1c2ccccc2c2cnn(CC(=O)N(Cc3ccccc3)C(C)C)c(=O)c21 3.55%
NC(=O)Nc1sc(-c2ccc(F)cc2)cc1C(N)=O -4.81%
COc1ccc(-n2ccn(CC(=O)NCc3ccc(C)cc3)c(=O)c2=O)cc1OC 3.68%
Cc1cc(F)ccc1NC(=O)c1ccc2nc(Cc3ccccc3)oc2c1 -5.59%
Cc1ccc(S(=O)(=O)NCCc2nnc3ccc(SCc4ccc(F)cc4)nn23)cc1 -8.51%
CCC(C(=O)Nc1cc(OC)ccc1OC)n1c(C)c2cnn(-c3ccccc3)c(=O)c2c1C (stereo not drawn) 28.7%
COc1ccccc1C(=O)c1cn(CC(=O)Nc2ccccc2F)c2nc(C)ccc2c1=O -22.1%
Cc1ccc(C)c(N2CCN(C(=O)c3cc(S(=O)(=O)N4CCC(C)CC4)cn3C)CC2)c1 6.89%
Cc1ccc(Nc2ncc(C(=O)N3CCN(c4cccc(Cl)c4)CC3)c3ccccc23)cc1Cl 0.153%
COc1ccccc1Cn1cc(C(=O)c2ccc(F)cc2)c(=O)c2cc3c(cc21)OCO3 0.355%
COC(=O)c1c(C)oc2ccc(N(C(=O)c3ccncc3)S(=O)(=O)c3c(C)cc(C)cc3C)cc12 -3.54%
CC(C)(C)c1ccc(C(=O)NC2(C(F)(F)F)C(=O)Nc3c2c(=O)[nH]c(=O)n3-c2ccccc2)cc1 (stereo not drawn) 5.37%
Cc1cccn2c(=O)c3cc(C(=O)NCc4cccnc4)c(=N)n(CCCO)c3nc12 -3.78%
CC1=Nc2cc(C(=O)NCCc3ccccc3)ccc2Sc2c(C)ccc(C)c21 1.89%
COc1ccc(C)cc1NC(=O)c1ccc(=O)n(Cc2ccccc2)c1 9.51%
CC(C)CCNC(=O)C1CCN(c2nc3ccc(Cl)cc3[nH]2)CC1 -4.34%
CCOC(=O)c1cc2c(=O)n3ccccc3nc2n(Cc2ccco2)c1=NC(=O)c1c(F)cccc1Cl -16%
O=C(Nc1ccc2nc(SCC(=O)N3CCCC3)sc2c1)c1cccc(Cl)c1 -7.35%
COc1ccc(NC(=O)Cn2c(=O)n(-c3ccc(C)cc3)c(=O)c3c2cnn3C)cc1 4.18%
COC(=O)c1cc2occc2n1Cc1nc(-c2cccc(Cl)c2)oc1C -3.45%
COc1ccc(CCNC(=O)c2cn(C)c3ccc(S(=O)(=O)N(C)C4CCCCC4)cc3c2=O)cc1OC -2.77%
CC(=O)Nc1ccc(S(=O)(=O)Nc2cc(-c3cn4ccccc4n3)ccc2C)cc1 1.04%
Cc1cccc(C(=O)Nc2c(C(=O)NCc3ccc(Cl)cc3)sc3nc(C)cc(C)c23)c1 -1.39%
COc1ccc(OC)c(CCNC(=O)c2cnn(-c3ccccc3Cl)c2C2CCN(C(=O)OC(C)(C)C)CC2)c1 1.32%

outcome, inactive:
Cc1ccc2nc(CN3CCN(C(=O)Nc4ccc(C)c(F)c4)CC3)oc2c1
O=C(Nc1ccc(F)cc1)[C@@H](c1ccccc1)N1Cc2ccccc2C1=O
COc1cc(OC)c(NC(=O)Cc2ccc(-n3c(C)nc4cccnc43)cc2)cc1Cl
Cc1cccc(N2CCN(C(=O)C3CCN(S(=O)(=O)c4c(C)noc4C)CC3)CC2)c1C
COc1ccc(CCNC(=O)CCc2cn(Cc3ccc(C)cc3)c3ccccc23)c(OC)c1OC
CCCOc1ccc(-c2nc(N3CCC(C)CC3)c3ccccc3n2)cc1
Cc1c(C(=O)N2CCCC2)oc2c1-c1nn(CC(=O)NC(C)c3ccccc3)cc1CC2 (stereo not drawn)
COc1ccc(CC(=O)NCC(c2cccs2)S(=O)(=O)c2ccc(Cl)cc2)cc1 (stereo not drawn)
Cc1ccc2oc(C(=O)Nc3cccc(-c4nc5ccccc5s4)c3)c(C)c2c1
Cc1sc2ncn(CC(=O)N3CCN(c4ccc(Cl)cc4)CC3)c(=O)c2c1S(=O)(=O)N1CCN(c2ncccn2)CC1
Cc1ccc(Cn2c(SCC(=O)C(C)(C)C)nc3ccsc3c2=O)cc1
CCOC(=O)c1c(C)[nH]c(C)c1S(=O)(=O)N(C)CC(=O)Nc1ccc(C)c(N(C)C)c1
